According to the supplement of paper PMC11125491:
± gives the standard deviation of the averaged measurements. Growth of baker's yeast expressing single-residue variants of Pneumocystis jirovecii dihydrofolate reductase in 8.8 or 44 µM methotrexate (about 75% and 90% inhibition of the wild type). Selection coefficient per generation; 0 = like wild type, above 0 = less sensitive, below 0 = more sensitive or loss of function. No active / inactive call per row; the paper calls resistant above 0.220 (8.8 µM) or 0.243 (44 µM) together with a significance test. At 44 µM about 15% of codons end with one read or none, so the lowest values are floors (replicate rank correlation 0.74; 0.94 at 8.8 µM).

B1: UniProt A0EPZ9; numbered along this chain (parent)
chain: MDWQKSLTLIVALTLSRGIGLKNDLPWKLKSDMMFFSRVTSGLLVTRSTGQMNVVLMGRKTWESLPAHSRPLKNRINVVISRQEVLDLGGGAYHARSLDDALALLSQIYDSTSKIQLNRVFVIGGGELCKAAMEHSRLNRIIATVIHNEVDCDVFFPIDFRSSQSCLPWRKQDHSVLEAWVGSKVPQGKINENGFIYEFEMWIRDI

Variants of: B1
Experiment: selection coefficient against synonymous wild-type codons (log2 per generation); higher = faster growth than wild type
Settings: with Saccharomyces cerevisiae carrying the variant on a plasmid
Experimental: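 Pooled growth of yeast carrying single-residue variants of P. jirovecii dihydrofolate reductase (own DFR1 gene intact), two passages at 30 °C, three cultures, sequenced before and after. Codons with under 15 starting reads are left out; codons of one change are averaged.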

MDWQKSLTLIVALTLSRGIGLKNDLDWKLKSDMMFFSRVTSGLLVTRSTGQMNVVLMGRKTWESLPAHSRPLKNRINVVISRQEVLDLGGGAYHARSLDDALALLSQIYDSTSKIQLNRVFVIGGGELCKAAMEHSRLNRIIATVIHNEVDCDVFFPIDFRSSQSCLPWRKQDHSVLEAWVGSKVPQGKINENGFIYEFEMWIRDI [P26D]
selection coefficient against synonymous wild-type codons (log2) (methotrexate 8.8 µM): -0.308 ± 0.12 | selection coefficient against synonymous wild-type codons (log2) (methotrexate 44 µM): -0.0617 ± 0.071

MDWQKSLTLIVALTLSRGIGLKNDLAWKLKSDMMFFSRVTSGLLVTRSTGQMNVVLMGRKTWESLPAHSRPLKNRINVVISRQEVLDLGGGAYHARSLDDALALLSQIYDSTSKIQLNRVFVIGGGELCKAAMEHSRLNRIIATVIHNEVDCDVFFPIDFRSSQSCLPWRKQDHSVLEAWVGSKVPQGKINENGFIYEFEMWIRDI [P26A]
selection coefficient against synonymous wild-type codons (log2) (methotrexate 8.8 µM): -0.0539 ± 0.093 | selection coefficient against synonymous wild-type codons (log2) (methotrexate 44 µM): 0.0154 ± 0.052

MDWQKSLTLIVALTLSRGIGLKNDLCWKLKSDMMFFSRVTSGLLVTRSTGQMNVVLMGRKTWESLPAHSRPLKNRINVVISRQEVLDLGGGAYHARSLDDALALLSQIYDSTSKIQLNRVFVIGGGELCKAAMEHSRLNRIIATVIHNEVDCDVFFPIDFRSSQSCLPWRKQDHSVLEAWVGSKVPQGKINENGFIYEFEMWIRDI [P26C]
selection coefficient against synonymous wild-type codons (log2) (methotrexate 8.8 µM): 0.119 ± 0.05 | selection coefficient against synonymous wild-type codons (log2) (methotrexate 44 µM): 0.165 ± 0.068

MDWQKSLTLIVALTLSRGIGLKNDLEWKLKSDMMFFSRVTSGLLVTRSTGQMNVVLMGRKTWESLPAHSRPLKNRINVVISRQEVLDLGGGAYHARSLDDALALLSQIYDSTSKIQLNRVFVIGGGELCKAAMEHSRLNRIIATVIHNEVDCDVFFPIDFRSSQSCLPWRKQDHSVLEAWVGSKVPQGKINENGFIYEFEMWIRDI [P26E]
selection coefficient against synonymous wild-type codons (log2) (methotrexate 8.8 µM): -0.0643 ± 0.046 | selection coefficient against synonymous wild-type codons (log2) (methotrexate 44 µM): 0.112 ± 0.28

MDWQKSLTLIVALTLSRGIGLKNDMPWKLKSDMMFFSRVTSGLLVTRSTGQMNVVLMGRKTWESLPAHSRPLKNRINVVISRQEVLDLGGGAYHARSLDDALALLSQIYDSTSKIQLNRVFVIGGGELCKAAMEHSRLNRIIATVIHNEVDCDVFFPIDFRSSQSCLPWRKQDHSVLEAWVGSKVPQGKINENGFIYEFEMWIRDI [L25M]
selection coefficient against synonymous wild-type codons (log2) (methotrexate 8.8 µM): 0.125 ± 0.042 | selection coefficient against synonymous wild-type codons (log2) (methotrexate 44 µM): 0.0955 ± 0.014

MDWQKSLTLIVALTLSRGIGLKNDKPWKLKSDMMFFSRVTSGLLVTRSTGQMNVVLMGRKTWESLPAHSRPLKNRINVVISRQEVLDLGGGAYHARSLDDALALLSQIYDSTSKIQLNRVFVIGGGELCKAAMEHSRLNRIIATVIHNEVDCDVFFPIDFRSSQSCLPWRKQDHSVLEAWVGSKVPQGKINENGFIYEFEMWIRDI [L25K]
selection coefficient against synonymous wild-type codons (log2) (methotrexate 8.8 µM): -0.561 ± 0.15 | selection coefficient against synonymous wild-type codons (log2) (methotrexate 44 µM): -0.33 ± 0.066

MDWQKSLTLIVALTLSRGIGLKNDVPWKLKSDMMFFSRVTSGLLVTRSTGQMNVVLMGRKTWESLPAHSRPLKNRINVVISRQEVLDLGGGAYHARSLDDALALLSQIYDSTSKIQLNRVFVIGGGELCKAAMEHSRLNRIIATVIHNEVDCDVFFPIDFRSSQSCLPWRKQDHSVLEAWVGSKVPQGKINENGFIYEFEMWIRDI [L25V]
selection coefficient against synonymous wild-type codons (log2) (methotrexate 8.8 µM): 0.124 ± 0.028 | selection coefficient against synonymous wild-type codons (log2) (methotrexate 44 µM): 0.0664 ± 0.058

MDWQKSLTLIVALTLSRGIGLKNDQPWKLKSDMMFFSRVTSGLLVTRSTGQMNVVLMGRKTWESLPAHSRPLKNRINVVISRQEVLDLGGGAYHARSLDDALALLSQIYDSTSKIQLNRVFVIGGGELCKAAMEHSRLNRIIATVIHNEVDCDVFFPIDFRSSQSCLPWRKQDHSVLEAWVGSKVPQGKINENGFIYEFEMWIRDI [L25Q]
selection coefficient against synonymous wild-type codons (log2) (methotrexate 8.8 µM): 0.455 ± 0.023 | selection coefficient against synonymous wild-type codons (log2) (methotrexate 44 µM): 0.462 ± 0.015

MDWQKSLTLIVALTLSRGIGLKNDTPWKLKSDMMFFSRVTSGLLVTRSTGQMNVVLMGRKTWESLPAHSRPLKNRINVVISRQEVLDLGGGAYHARSLDDALALLSQIYDSTSKIQLNRVFVIGGGELCKAAMEHSRLNRIIATVIHNEVDCDVFFPIDFRSSQSCLPWRKQDHSVLEAWVGSKVPQGKINENGFIYEFEMWIRDI [L25T]
selection coefficient against synonymous wild-type codons (log2) (methotrexate 8.8 µM): -0.0748 ± 0.075 | selection coefficient against synonymous wild-type codons (log2) (methotrexate 44 µM): -0.0475 ± 0.053

MDWQKSLTLIVALTLSRGIGLKNDWPWKLKSDMMFFSRVTSGLLVTRSTGQMNVVLMGRKTWESLPAHSRPLKNRINVVISRQEVLDLGGGAYHARSLDDALALLSQIYDSTSKIQLNRVFVIGGGELCKAAMEHSRLNRIIATVIHNEVDCDVFFPIDFRSSQSCLPWRKQDHSVLEAWVGSKVPQGKINENGFIYEFEMWIRDI [L25W]
selection coefficient against synonymous wild-type codons (log2) (methotrexate 8.8 µM): -0.255 ± 0.073 | selection coefficient against synonymous wild-type codons (log2) (methotrexate 44 µM): -0.154 ± 0.13

MDWQKSLTLIVALTLSRGIGLKNDRPWKLKSDMMFFSRVTSGLLVTRSTGQMNVVLMGRKTWESLPAHSRPLKNRINVVISRQEVLDLGGGAYHARSLDDALALLSQIYDSTSKIQLNRVFVIGGGELCKAAMEHSRLNRIIATVIHNEVDCDVFFPIDFRSSQSCLPWRKQDHSVLEAWVGSKVPQGKINENGFIYEFEMWIRDI [L25R]
selection coefficient against synonymous wild-type codons (log2) (methotrexate 8.8 µM): 0.426 ± 0.064 | selection coefficient against synonymous wild-type codons (log2) (methotrexate 44 µM): 0.547 ± 0.092

MDWQKSLTLIVALTLSRGIGLKNDYPWKLKSDMMFFSRVTSGLLVTRSTGQMNVVLMGRKTWESLPAHSRPLKNRINVVISRQEVLDLGGGAYHARSLDDALALLSQIYDSTSKIQLNRVFVIGGGELCKAAMEHSRLNRIIATVIHNEVDCDVFFPIDFRSSQSCLPWRKQDHSVLEAWVGSKVPQGKINENGFIYEFEMWIRDI [L25Y]
selection coefficient against synonymous wild-type codons (log2) (methotrexate 8.8 µM): -0.113 ± 0.04 | selection coefficient against synonymous wild-type codons (log2) (methotrexate 44 µM): -0.175 ± 0.14

MDWQKSLTLIVALTLSRGIGLKNDNPWKLKSDMMFFSRVTSGLLVTRSTGQMNVVLMGRKTWESLPAHSRPLKNRINVVISRQEVLDLGGGAYHARSLDDALALLSQIYDSTSKIQLNRVFVIGGGELCKAAMEHSRLNRIIATVIHNEVDCDVFFPIDFRSSQSCLPWRKQDHSVLEAWVGSKVPQGKINENGFIYEFEMWIRDI [L25N]
selection coefficient against synonymous wild-type codons (log2) (methotrexate 8.8 µM): 0.0485 ± 0.0083 | selection coefficient against synonymous wild-type codons (log2) (methotrexate 44 µM): 0.037 ± 0.047

MDWQKSLTLIVALTLSRGIGLKNDSPWKLKSDMMFFSRVTSGLLVTRSTGQMNVVLMGRKTWESLPAHSRPLKNRINVVISRQEVLDLGGGAYHARSLDDALALLSQIYDSTSKIQLNRVFVIGGGELCKAAMEHSRLNRIIATVIHNEVDCDVFFPIDFRSSQSCLPWRKQDHSVLEAWVGSKVPQGKINENGFIYEFEMWIRDI [L25S]
selection coefficient against synonymous wild-type codons (log2) (methotrexate 8.8 µM): -0.039 ± 0.091 | selection coefficient against synonymous wild-type codons (log2) (methotrexate 44 µM): -0.0375 ± 0.11

MDWQKSLTLIVALTLSRGIGLKNDPPWKLKSDMMFFSRVTSGLLVTRSTGQMNVVLMGRKTWESLPAHSRPLKNRINVVISRQEVLDLGGGAYHARSLDDALALLSQIYDSTSKIQLNRVFVIGGGELCKAAMEHSRLNRIIATVIHNEVDCDVFFPIDFRSSQSCLPWRKQDHSVLEAWVGSKVPQGKINENGFIYEFEMWIRDI [L25P]
selection coefficient against synonymous wild-type codons (log2) (methotrexate 8.8 µM): -0.181 ± 0.09 | selection coefficient against synonymous wild-type codons (log2) (methotrexate 44 µM): -0.168 ± 0.11
